We go through 7 cell lines from the supplement of paper PMC4967469.

What is called IC50 is the concentration that gives 50% inhibition.

Lines with a small IC50 respond at low doses; fits outside the tested doses are given as limits. For AUC the same curve is integrated over the 256-fold range of doses and scaled to a fraction: 1 means no effect, lower means more sensitive. For some assays here: An inferred top dose is not printed in the source and was worked back from the curve model.

Holding throughout (test): Viability of human cancer cell lines after 72 h of drug (GDSC screen)
Compound in assay [1]: C=CC(=O)Nc1cc(-n2c(=O)ccc3cnc4ccc(-c5ccc(NS(C)(=O)=O)cc5)cc4c32)ccc1C [BMX-IN-1 (QL-XII-61)]
Particulars: top dose 10 µM; top dose inferred. On the procedure:
(§1)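 Human cancer cell lines in 384-well plates, medium with 10% serum, drug for 72 h over a 256-fold dose range (nine 2-fold or five 4-fold steps up to the top dose). Adherent lines were fixed and stained with the nucleic acid dye Syto60, suspension lines read with resazurin; signal relative to control wells, capped at 0 and 100%. One two-parameter sigmoid per drug and line, fitted in a mixed model over all curves with the slope shared within a line.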

Compound in assay [2]: C=CCNC1=C2C[C@@H](C)C[C@H](OC)[C@H](O)[C@@H](C)/C=C(\C)[C@H](OC(N)=O)[C@@H](OC)/C=C\C=C(/C)C(=O)NC(=CC1=O)C2=O [17-AAG]
The following applies: top dose 1 µM. On the procedure: as §1

Compound in assay [3]: CCc1cc(-c2n[nH]c(C)c2-c2ccc3c(c2)OCCO3)c(O)cc1O [CCT018159]
The following applies: top dose 10 µM; top dose inferred. On the procedure:
as §1

Compound in assay [4]: CN(C)Cc1cccc(N=C(c2ccccc2)c2c(O)[nH]c3cc(C(=O)N(C)C)ccc23)c1 [BIX02189]
The following applies: top dose 20 µM; top dose inferred. The protocol:
as §1

Compound in assay [5]: COC(=O)CNC(=O)C(=O)OC [Dimethyloxalylglycine]
The following applies: top dose 4000 µM; top dose inferred. On the procedure: as §1

Compound in assay [6]: COc1cccc2cc(-c3nc([C@H]4CC[C@H](C(=O)O)CC4)n4ncnc(N)c34)[nH]c12 [OSI-027]
Particulars: top dose 20 µM. On the procedure:
as §1

Compound in assay [7]: CS(=O)(=O)c1ccc(C(=O)Nc2ccc(Cl)c(-c3ccccn3)c2)c(Cl)c1 [Vismodegib]
Particulars: top dose 10 µM; top dose inferred. On the procedure: as §1

Compound in assay [8]: Cc1cnc(Nc2ccc(F)cc2Cl)nc1-c1c[nH]c(C(=O)N[C@H](CO)c2cccc(Cl)c2)c1 [VX-11e]
The following applies: top dose 5.12 µM; top dose inferred. On the procedure:
as §1

Compound in assay [9]: Cc1cnc(Nc2ccc(OCCN3CCCC3)cc2)nc1Nc1cccc(S(=O)(=O)NC(C)(C)C)c1 [TG101348]
Particulars: top dose 10.24 µM. On the procedure:
as §1

Compound in assay [10]: O=C(c1ccc(C(=O)N2CCC(N3CCCC3)CC2)c(Nc2ccccc2)c1)N1CCC(N2CCCC2)CC1 [UNC1215]
The following applies: top dose 1 µM; top dose inferred. The protocol: as §1

Take Capan-2 (pancreas, adherent): the AUC in assay [1] came to 0.915; in assay [2], 0.67; in [3], 0.975; in [4], 0.955; in [5], 0.567; in assay [6], 0.83. Further, the AUC came out at 0.985 in [7], 0.941 in assay [8], 0.794 in assay [9] and 0.983 in [10]. Further, the IC50 in [1] is over 10 µM; in assay [2], 0.207 µM; in [3], over 10 µM; in [4] it was over 20 µM; in [5] it was 397 µM; in [6], 16.3 µM. The IC50 in assay [7] is over 10 µM; in assay [8], over 5.12 µM; in assay [9] it was 5.86 µM; in assay [10], over 1 µM.

Regarding 22RV1 (prostate, adherent), the AUC in [1] was found to be 0.967; in assay [2], 0.899; in [3], 0.922; in assay [4], 0.96; in [5] it was 0.529; in assay [6], 0.367. For the same cell line, the AUC in [7] was found to be 0.963; in [8] it was 0.725; in [9] it was 0.859; in assay [10] it was 0.974. Besides, the IC50 in [1] is over 10 µM; in assay [2], over 1 µM; in assay [3], over 10 µM; in assay [4], over 20 µM; in assay [6], 0.488 µM; in assay [7], over 10 µM. Besides, the IC50 in assay [8] was 1.65 µM; in [9], over 10.2 µM; in [10] it was over 1 µM.

Regarding SW626 (ovary, adherent), the AUC turned out to be 0.961 in [1]; 0.736 in [2]; 0.925 in assay [3]; 0.941 in assay [4]; 0.785 in assay [5]; 0.452 in [6]. For the same cell line, the AUC in assay [7] turned out to be 0.976; in assay [8], 0.793; in [9], 0.891; in [10] it was 0.981. Besides, the IC50 is over 10 µM in [1]; 0.339 µM in [2]; over 10 µM in [3]; over 20 µM in assay [4]; 2060 µM in assay [5]; 0.901 µM in [6]. In addition, the IC50 in assay [7] was over 10 µM; in assay [8], 2.84 µM; in [9], over 10.2 µM; in assay [10], over 1 µM.

Take HSC-2 (head and neck, adherent): the AUC came out at 0.983 in [1]; 0.708 in assay [2]; 0.978 in [4]; 0.617 in assay [5]; 0.871 in assay [6]; 0.987 in assay [7]. Further, the AUC in [8] is 0.978; in assay [9], 0.902; in assay [10], 0.967. Further, the IC50 in assay [1] is over 10 µM; in [2], 0.229 µM; in assay [4] it was over 20 µM; in assay [5], 509 µM; in [6], 16.4 µM; in assay [7] it was over 10 µM. Further, the IC50 in [8] is over 5.12 µM; in assay [9] it was over 10.2 µM; in [10], over 1 µM.

In the case of “MLMA (hairy cell leukaemia, semi-adherent)”, the AUC in [1] was 0.785; in [2], 0.887; in [3], 0.897; in assay [4], 0.798; in [5], 0.252; in assay [6], 0.213. The AUC in [7] was found to be 0.986; in [8], 0.908; in [9], 0.72; in assay [10] it was 0.984. The IC50 in [1] was 4.31 µM; in assay [2], over 1 µM; in assay [3] it was over 10 µM; in assay [4] it was 9.66 µM; in assay [5], 48.2 µM; in assay [6] it was 0.177 µM. In addition, the IC50 is over 10 µM in assay [7], over 5.12 µM in assay [8], 2.7 µM in assay [9] and over 1 µM in [10].

As for A2780 (ovary, semi-adherent), the AUC was determined as 0.687 in [1]; 0.626 in assay [2]; 0.76 in [3]; 0.872 in assay [4]; 0.79 in [5]; 0.191 in assay [6]. The AUC in assay [7] came out at 0.985; in assay [8], 0.549; in assay [9] it was 0.555; in [10], 0.973. The IC50 is 2.14 µM in [1]; 0.141 µM in [2]; 3.64 µM in assay [3]; over 20 µM in [4]; 1850 µM in [5]; 0.144 µM in assay [6]. The IC50 was over 10 µM in assay [7], 0.437 µM in [8], 0.911 µM in assay [9] and over 1 µM in assay [10].

With NB1 (neuroblastoma, semi-adherent), the AUC is 0.96 in [1]; 0.607 in assay [2]; 0.933 in [3]; 0.963 in [4]; 0.483 in [5]; 0.824 in assay [6]. Besides, the AUC in [7] turned out to be 0.984; in assay [8], 0.897; in assay [9], 0.763; in assay [10] it was 0.982. Moreover, the IC50 is over 10 µM in [1]; 0.127 µM in assay [2]; over 10 µM in [3]; over 20 µM in assay [4]; 224 µM in [5]; 13.6 µM in [6]. Besides, the IC50 in assay [7] is over 10 µM; in assay [8] it was over 5.12 µM; in [9], 4.04 µM; in [10] it was over 1 µM.
